No constants are given. Whether binding was seen depends on the method and setting. For part of these data: Binding seen in cells or lysates may run through a third protein. Some results given as binding are weak or reduced against the parent protein; the word gives no strength. For part of these data: Tags and fused reporters may be left off the sequences shown. Values belong to the binder of their own block, whether it stands above or below them.
How the values were obtained:
[1] = biological target: T1, YFPC-CDKG1 (Arabidopsis thaliana) (UniProt Q9FGW5); assay: split reporter; BiFC: YFPN and YFPC fusions co-expressed by agroinfiltration in N. benthamiana leaf epidermal cells, confocal microscopy
T1 sequence: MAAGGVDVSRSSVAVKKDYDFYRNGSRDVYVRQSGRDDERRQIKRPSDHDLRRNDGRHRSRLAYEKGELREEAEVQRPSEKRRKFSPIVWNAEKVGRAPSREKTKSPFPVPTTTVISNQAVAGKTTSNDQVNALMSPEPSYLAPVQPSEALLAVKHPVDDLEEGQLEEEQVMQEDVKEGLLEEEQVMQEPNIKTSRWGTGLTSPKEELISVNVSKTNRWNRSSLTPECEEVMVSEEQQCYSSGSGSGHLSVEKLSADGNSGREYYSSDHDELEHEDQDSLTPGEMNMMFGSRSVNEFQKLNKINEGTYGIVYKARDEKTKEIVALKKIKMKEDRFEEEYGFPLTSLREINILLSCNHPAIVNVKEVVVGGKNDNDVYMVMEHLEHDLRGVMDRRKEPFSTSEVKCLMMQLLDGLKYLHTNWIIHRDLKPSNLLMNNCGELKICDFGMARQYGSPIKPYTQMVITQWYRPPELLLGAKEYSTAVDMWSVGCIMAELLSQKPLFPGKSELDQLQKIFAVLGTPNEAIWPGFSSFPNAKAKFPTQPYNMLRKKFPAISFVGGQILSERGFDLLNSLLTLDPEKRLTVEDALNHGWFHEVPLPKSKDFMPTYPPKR

[2] = biological target: T2, pGBKT7-CDKG1 (BD-CDKG1) (Arabidopsis thaliana) (UniProt Q9FGW5); assay: two-hybrid; AH109 yeast co-transformed with bait and prey plasmids (pGBKT7, pGADT7), plated on SD/-Trp/-Leu and replica plated on SD/-Trp/-Leu/-His/-Ade, 4 days; also reciprocal orientation and SINA2 deletion constructs
T2 sequence: T1 sequence

[3] = biological target: T3, BD-SINA2(1-80) (Arabidopsis thaliana) (UniProt Q93WE4); assay: as above
T3 sequence: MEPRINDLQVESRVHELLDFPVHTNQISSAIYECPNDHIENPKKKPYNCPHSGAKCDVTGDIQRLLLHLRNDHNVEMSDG

[4] = biological target: T4, pGBKT7-SINA2 (BD-SINA2) (Arabidopsis thaliana) (UniProt Q93WE4); assay: as above
T4 sequence: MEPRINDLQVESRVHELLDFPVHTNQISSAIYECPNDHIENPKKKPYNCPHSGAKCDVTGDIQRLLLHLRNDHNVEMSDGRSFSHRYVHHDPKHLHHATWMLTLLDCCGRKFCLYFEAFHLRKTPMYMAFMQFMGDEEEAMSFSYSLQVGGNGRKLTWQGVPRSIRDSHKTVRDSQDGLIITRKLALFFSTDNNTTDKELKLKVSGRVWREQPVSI

[5] = biological target: T5, BD-SINA(77-216) (Arabidopsis thaliana) (UniProt Q93WE4); assay: as above
T5 sequence: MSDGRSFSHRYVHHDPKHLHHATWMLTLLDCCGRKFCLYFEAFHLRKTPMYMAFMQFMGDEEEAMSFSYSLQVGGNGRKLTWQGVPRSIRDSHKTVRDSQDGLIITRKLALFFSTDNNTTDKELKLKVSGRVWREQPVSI

B2: SINA2 as prey plasmid (AD-SINA2) (protein, UniProt Q93WE4 1-216)
chain: T4 sequence
binding [2]: binds

B3: YFPN-SINA2 (protein, UniProt Q93WE4 1-216)
chain: T4 sequence
binding [1]: binds

Next, values leading:

binding [1]: no binding
B1: YFPN-SINA2(1-80) (domain or fragment, UniProt Q93WE4 1-80)
chain: T3 sequence

binding [3]: no binding | binding [4]: binds | binding [5]: binds
B4: pGADT7-CDKG1 (AD-CDKG1) (protein, UniProt Q9FGW5-1 1-612)
chain: T1 sequence
